# Screen size: about 340,000 compounds; about 6,900 (2%) were called active. Cut-off read from the data, not from the text of the source: active = inhibition above about 30%; inactive = below that, where a call was filed. The entries are a selection whose mix differs from that of the whole data set. The source gives no active or inactive call for entries shown without one.
# Target: D(2) dopamine receptor (Homo sapiens) (UniProt P14416)
# Assay: HTS Assay for Allosteric Antagonists of the Human D2 Dopamine Receptor: Primary Screen for Antagonists; note: 0% is about no effect
# Details: HEK293 TREx D2 cells, calcium flux, dopamine EC80; at 10 µM; stronger effect = higher value
# How it was run: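 Compounds are added to dye-loaded, induced HEK293 T-REx cells coupled to calcium release via D2; after a 3 min kinetic read an EC80 dopamine stimulus is given and fluorescence is recorded for 3 more min.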
# UniProt P14416, sequence (P14416 whole entry, looked up): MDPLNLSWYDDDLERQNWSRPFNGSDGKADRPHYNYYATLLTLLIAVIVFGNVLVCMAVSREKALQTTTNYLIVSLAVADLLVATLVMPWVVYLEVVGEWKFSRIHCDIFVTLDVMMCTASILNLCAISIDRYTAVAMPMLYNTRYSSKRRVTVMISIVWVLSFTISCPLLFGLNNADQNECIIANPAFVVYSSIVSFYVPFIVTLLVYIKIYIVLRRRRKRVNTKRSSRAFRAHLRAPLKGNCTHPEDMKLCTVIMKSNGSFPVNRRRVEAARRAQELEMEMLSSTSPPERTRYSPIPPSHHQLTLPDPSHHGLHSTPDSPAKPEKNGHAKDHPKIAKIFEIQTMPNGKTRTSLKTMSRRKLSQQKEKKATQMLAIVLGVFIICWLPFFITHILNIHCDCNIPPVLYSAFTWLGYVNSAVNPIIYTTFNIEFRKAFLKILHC
row,Compound,inhibition
1,CCc1ccccc1NS(=O)(=O)c1ccc2[nH]cc(C(=O)N(CC)Cc3ccccc3)c(=O)c2c1,9.82%
2,CCCc1ccc(OCC(=O)Nc2sc(C(=O)OCC)c(C)c2C(=O)OCC)cc1,11.6%
3,CSc1ncc(C(=O)NCc2ccccc2F)c(-c2ccccc2)n1,3.18%
4,Cc1ccc(C)c(N2CCN(S(=O)(=O)c3ccc4c(c3)C(C(C)C)C(=O)N4)CC2)c1 (stereo unspecified),-0.456%
5,C=CCc1ccc(OCCCNCc2ccccc2)c(OC)c1,active: 62.2%
6,CC(C)C1Oc2ccccc2N(CC(=O)N2CCOCC2)C1=O (stereo unspecified),active: 37.9%
7,CCOC(=O)c1ccc(CN(Cc2ccc(F)cc2)S(=O)(=O)c2ccc(F)c(C(=O)Nc3c(C)cccc3C)c2)cc1,10.2%
8,COc1cccc(-c2nc(CS(=O)(=O)CC(=O)N3CCN(c4cc(C)ccc4C)CC3)c(C)o2)c1,24.6%
9,CCc1ccc(C2CC(=O)c3c([nH]c(C(=O)OC4CCCC4)c3C)C2)cc1 (stereo unspecified),25.1%
10,COc1ccc(OC)c(C2CC(=O)Nc3c2c(=O)[nH]c2ncnn32)c1 (stereo unspecified),1.4%
11,COc1ccc(C2NC(=O)N(C)C3=C2C(=O)N(c2ccc(C(=O)O)cc2)C3)cc1 (stereo unspecified),-5.08%
12,Cc1nn(C)cc1CN(C)C(=O)c1cc(-c2ccccc2)nc2ccc(Br)cc12,4.14%
13,O=C(Nc1cccc(C(F)(F)F)c1)c1cnn(-c2cccc(F)c2)c1C1CCNCC1,6.68%
14,O=C(CCNC(=O)c1ccc([N+](=O)[O-])cc1)NC1CCCc2ccccc21 (stereo unspecified),active: 32.3%
15,CCOc1ccc(CCNC(=O)c2oc(=O)c3ccccc3c2-c2ccc(C)cc2)cc1OCC,-7.87%
16,Cc1ccc(NC(=O)CCS(=O)(=O)c2ccc(Br)s2)c(Br)c1,0.752%
17,CC(C)(C)c1ccc(C(=O)NCCc2csc(-c3ccc(Cl)cc3)n2)cc1,-8.48%
18,CC1Cc2ccccc2N1C(=O)CSc1nc2ccc(NC(=O)COc3ccccc3)cc2s1 (stereo unspecified),-17.1%
19,CC1=C(C(=O)NCc2cccc(F)c2)C2(CCCCC2)OC1=O,-15.2%
20,CCOC(=O)C(C)Sc1ccc2nnc(CCNS(=O)(=O)c3ccc(C)cc3)n2n1 (stereo unspecified),-1.41%
21,N#Cc1c(C(F)(F)F)cc(-c2cccs2)nc1SCc1ccc(F)cc1,-8.9%
22,Cc1ccc(CNCc2ccccc2Cl)s1,-4.68%
23,COc1ccc(-c2nnc(SCC(=O)NCCC(C)C)nc2-c2ccc(OC)c(OC)c2)cc1OC,-5.59%
24,COCc1cc(C)nc2c1C(=O)NC(c1ccc(F)cc1)N2Cc1ccccc1 (stereo unspecified),5.4%
25,CCCS(=O)(=O)N1CCC(C(=O)NCCCN2CCC(Cc3ccccc3)CC2)CC1,active: 32.9%
26,COC(=O)c1cc2oc(C)cc2n1CC(=O)Nc1ccc(C(C)C)cc1,4.48%
